The results in this text go back to PubChem BioAssay AID260 (DTP/NCI, 2004).

In this assay the test system is CD2F1 mice, intracerebral L1210 leukemia, survival T/C. The assay is described as follows: NCI In Vivo Anticancer Drug Screen. Data for tumor model L1210 Leukemia (intracerebral) in CD2F1 (CDF1) mice. The following applies: schedule: Q01DX009 (ip), vehicle: saline, higher = longer survival. The protocol: The antitumor activity of compounds was measured in mice bearing transplantable tumors. Survival or tumor size were measured and the results are expressed as the measurement made in the treated group (T) divided by the measurement made in the vehicle treated control group (C). The tumor model used in this assay is L1210 Leukemia (intracerebral) in CD2F1 (CDF1) mice

Each structure is given as a SMILES string. Inconclusive results and toxic doses are left out. The source holds more than one record for some entries. The other results are left out here. There may be further records. Values that stand side by side are repeated measurements (runs, samples, wells, individuals or studies).

With `O=C1C(NCCO)=C(N2CC2)C(=O)C(NCCO)=C1N1CC1`, the T/C (endpoint: mean survival time, dose: 0.75 mg/kg/injection) was 122 % of control and 157 % of control. For the compound `CC/C(=C(/CC)c1ccc(O)cc1)c1ccc(O)cc1`, for the setting “endpoint: median survival time, dose: 128.0 mg/kg/injection”, the T/C was 94 % of control and 153 % of control.
